Out of some 48,000 compounds screened, about 1,200 (2.5%) were called active. Another 2% or so got no clear call; they are omitted.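 How the source made its calls: active means activation of at least 60% and not above a set upper limit (about 1 call in 100 departs from these limits); inconclusive means activation of 40% to 60%, or above that upper limit; inactive means activation under 40%.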 This is one part of the list.

This test deals with Probable G-protein coupled receptor 32 (Homo sapiens) (UniProt O75388). The experiment in a line: qHTS for Agonists of Human Resolvin D1 Receptor DRV1. Further: 0% is about no effect. Conditions: CHO-K1 GPR32 beta-arrestin PathHunter luminescence, 90 min; at 76.9 µM; stronger effect = higher value; zero percent set by DMSO-only wells. The method, boiled down: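 Readings come from a cell-based beta-arrestin complementation format: CHO-K1 GPR32 stable cells (2,500/well) treated 90 min with compounds, then beta-Gal substrate added for 1 h before chemiluminescence imaging.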
Sequence of UniProt O75388 (O75388 whole entry, looked up): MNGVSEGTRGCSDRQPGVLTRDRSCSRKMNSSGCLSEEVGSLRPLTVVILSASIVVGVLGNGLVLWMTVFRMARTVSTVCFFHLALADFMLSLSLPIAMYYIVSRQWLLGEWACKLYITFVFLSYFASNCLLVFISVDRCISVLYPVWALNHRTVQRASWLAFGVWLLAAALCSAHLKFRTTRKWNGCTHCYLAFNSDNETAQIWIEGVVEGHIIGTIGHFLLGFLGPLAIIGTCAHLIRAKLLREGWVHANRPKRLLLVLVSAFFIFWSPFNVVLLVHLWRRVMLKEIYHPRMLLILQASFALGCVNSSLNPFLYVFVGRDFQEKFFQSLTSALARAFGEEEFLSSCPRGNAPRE
A general note: In qHTS, concentration-response curves come from the screen itself.
Take `CCc1cc2c(cc3c(=O)n(CC(=O)NCCOC)nc(CC)n32)s1`: the activation is inactive: -3.37%.

Regarding `Cc1ccc2nc(N(Cc3cccnc3)C(=O)CCOc3ccccc3)sc2c1`, the activation is inactive: 3.07%.

As to `Cc1cccc(C(=O)N2CCc3cc(CNS(=O)(=O)c4cccs4)ccc32)c1`, the activation is inactive: 0.853%.

Take `CCn1c(CC2C(=O)N(C)c3ccc(Br)cc32)nc2ccccc2c1=O` (centres undefined): the activation is inactive: -36.8%.

On to `CC(=O)Nc1ccc(Nc2ncnc3sc4c(c23)CCCC4)cc1`, for which the activation is active: 97.4%.

`Cc1ccc2c(c1)N(C(=O)N1CCC(C(=O)NCc3ccccc3F)CC1)CC(C)O2` (centres undefined): the activation was inactive: -0.962%.

As for `Cc1cccc(NC(=O)c2sc(-n3nc(C)c(CCC(C)C)c3C)nc2C)c1`, the activation was inactive: -5.15%.

Regarding `Nc1c(C(=O)c2ccccc2)sc(Nc2ccc(Cl)c(Cl)c2)c1C(=O)Nc1ccccc1`, the activation was inactive: -105%.

For `COC1=C(OC)C(=O)c2ccccc2C1=O`, the activation is inactive: 23.9%.

Turning to `CCOC(=O)CSc1nc2c(sc3ccccc32)c(=O)n1Cc1ccc(OC)cc1`, the activation was inactive: -14.4%.

On to `N#Cc1ccccc1OCC(=O)N1CCN(c2ccccc2F)CC1`, for which the activation was inactive: 4.98%.

In the case of `COc1cc2ccccc2cc1C(=O)Nc1ccc2oc(-c3cccc(C)c3)nc2c1`, the activation was inactive: -5.04%.

Take `O=S(=O)(c1ccccc1)c1nc(-c2ccccc2F)oc1N1CCOCC1`: the activation is inactive: 14.7%.

Take `COc1ccc(-c2cn3c(n2)sc2cc(C(=O)Nc4ccc(C)cc4C)ccc23)cc1`: the activation was inactive: -2.5%.

Turning to `COc1ccc(CCNc2nc3cc(OC)c(OC)cc3c3nc(-c4cccnc4)nn23)cc1OC`, the activation is inactive: 6.66%.

Turning to `COc1ccc(OC)c(NC(=O)N2CCN(Cc3nc4ccc(C)cc4o3)CC2)c1`, the activation is inactive: -7.72%.

In the case of `COc1ccc(-n2c3c(cc(-c4nc(-c5ccc(Cl)cc5)cs4)c2=O)C(=O)CC(C)(C)C3)cc1Cl`, the activation is inactive: 24.1%.

Regarding `CCOc1ccc(NC(=O)CCSc2nc(-c3ccc4c(c3)OCO4)cc(C(F)(F)F)n2)cc1`, the activation is inactive: -4.25%.

Take `Cc1cc(-n2nc3ccc(Cl)cc3n2)c(O)c(C(C)(C)C)c1`: the activation is inactive: -2.4%.

In the case of `CCN1C(=O)c2ccccc2Sc2ccc(NC(=O)c3ccc(C#N)cc3)cc21`, the activation was inactive: 18.3%.

With `Cc1ccccc1NCc1nc2ccccc2n1CCOc1ccccc1`, the activation is inactive: -20%.

In the case of `O=C1NC(c2ccccc2)(c2ccccc2)C(=O)N1COP(=O)(O)O`, the activation was inactive: -1.15%.

Turning to `CN(C(=O)Cn1nnc(-c2ccc(S(C)(=O)=O)cc2)n1)c1ccccc1`, the activation is inactive: -4.68%.

Take `Cc1c(C(=O)N(C)C)sc2c1c(=O)n(-c1ccccc1C(F)(F)F)c(=O)n2Cc1cccc(F)c1`: the activation is inactive: -42.7%.

Turning to `COc1ccc(C(=O)Nc2nc3c(s2)Cc2cc(OC)ccc2-3)cc1`, the activation was inactive: -27.7%.

Take `O[C@@H]1CO[C@H]2[C@@H]1OC[C@@H]2O`: the activation was inactive: -3.66%.

With `COc1ccc(NC(=O)CSc2oc(-c3ccco3)nc2S(=O)(=O)c2ccccc2)c(OC)c1`, the activation is inactive: 0.985%.

Turning to `CCOc1ccc(N2CC(c3nc4ccccc4n3CCOc3ccccc3)CC2=O)cc1` (centres undefined), the activation was inactive: -21.6%.

For `COc1ccc(C2C=C(c3ccccc3)Nc3nc(NC(=O)/C=C/c4ccc(Cl)cc4)nn32)cc1` (centres undefined), the activation was inactive: -23.9%.

`Cc1ccc(NC(=O)c2cc(S(=O)(=O)N3CCCCC3)c[nH]2)cc1F`: the activation was inactive: -5.65%.

Consider `Cc1nn(-c2ccccc2)c2sc(C(=O)Nc3cccc(Br)c3)cc12`, for which the activation was inactive: 3.36%.

In the case of `Cc1nc2ncnn2c(C)c1CCC(=O)NCc1cccc(Cl)c1`, the activation was inactive: -3.1%.

Turning to `CCOC(=O)c1c(NC(=O)COc2ccc(Br)cc2)sc(C(C)=O)c1C`, the activation was inactive: -6.45%.

As for `Cc1noc(C)c1S(=O)(=O)NCCc1csc2nc(-c3ccc(Cl)cc3)nn12`, the activation was inactive: 22%.

Turning to `O=C(COc1ccc(F)cc1)Nc1ccc(Cl)c(-c2nc3ccccc3[nH]2)c1`, the activation is inactive: 3%.

As for `COc1ccccc1-c1nnc(C2CCN(S(=O)(=O)c3ccc(F)c(C)c3)CC2)o1`, the activation was inactive: -7.3%.

Take `CCOC(=O)N1CCN(C(=O)Cn2ncc3c4ccccc4n(Cc4ccc(F)cc4)c3c2=O)CC1`: the activation was inactive: -15.4%.

As to `Cc1cccc(NC(=O)c2c(C)oc3ncnc(N4CCCCC4)c23)c1C`, the activation was inactive: -18%.

For `CCCCc1nn2c(=O)cc(COC(=O)c3ccccc3NC(=O)c3cccc(C)c3)nc2s1`, the activation was inactive: -24.3%.

Turning to `COc1ccc2nc(NC(=O)c3cc(=O)c4cc(C)c(C)cc4o3)sc2c1`, the activation is inactive: -7.72%.

On to `CC(=O)Nc1cccc(-c2cn3cccnc3n2)c1`, for which the activation was inactive: 23.2%.

Take `Cc1ccc(NC(=O)Cn2c(=O)n(Cc3ccccc3)c(=O)c3c2c2cc(C)ccc2n3C)cc1`: the activation is inactive: -4.77%.

Regarding `Cc1nc(-c2ccc(F)cc2)sc1CCNC(=O)c1ccc(C(C)(C)C)cc1`, the activation is inactive: -11.2%.

On to `Cc1ccc(Cl)cc1NS(=O)(=O)c1ccc(N2CCCCS2(=O)=O)cc1`, for which the activation was inactive: 4.62%.

As for `CCOc1ccc(C(=O)c2c(N)c(-c3nc(-c4ccc(OCC)cc4)cs3)c3ccccn23)cc1`, the activation was inactive: 8.01%.

For the molecule `Cc1ccc(C(=O)NCC(c2cccnc2)N2CCc3ccccc3C2)cc1C` (centres undefined), the activation is inactive: -11.7%.

For the molecule `CCOc1ccc(NC(=O)CCn2nc(C)c(S(=O)(=O)N3CCCCC3)c2C)cc1`, the activation is inactive: -9.92%.

`Cc1nnc(NCc2ccc(F)cc2)c2c1nnn2Cc1ccccc1Cl`: the activation was inactive: 3.8%.

On to `CCc1ccc(N2C(=O)N(CC(=O)C(C)(C)C)c3ccccc3S2(=O)=O)cc1`, for which the activation was inactive: -2.76%.

With `O=C(NCCC1=CCCCC1)c1ccc2c(c1)N(Cc1ccc(Cl)cc1)C(=O)c1ccccc1S2(=O)=O`, the activation is inactive: 5.86%.

With `COc1ccc(OC)c(NC(=O)CSC2=Nc3ccccc3C3=NC(CCC(=O)NCCc4ccccc4)C(=O)N23)c1` (centres undefined), the activation was inactive: -8.89%.

`COc1ccccc1N1CCN(S(=O)(=O)c2c(C)sc3ncn(CC(=O)NCCN(C)C)c(=O)c23)CC1`: the activation is inactive: 6.03%.

For `COc1ccc(NC(=O)CC2C(=O)N(c3ccc(C)cc3)C(=O)N2Cc2ccc(C)cc2)cc1` (centres undefined), the activation is inactive: 24.7%.

As for `COc1ccc(CCNC(=O)Cn2nc(C)c3c(C)n(-c4ccc(C)cc4)nc3c2=O)c(OC)c1`, the activation was inactive: -2.86%.

For the molecule `Cc1c(Cl)cccc1NC(=O)Cn1cnc(S(=O)(=O)N2CCCC2)c1`, the activation was inactive: -1.75%.

Take `CCN(CC)CCCNC(=O)c1nn(-c2ccc(OC)cc2)c(=O)c2c1c1ccccc1n2C`: the activation is inactive: -22.9%.

With `O=c1c2ccccc2nc(N2CCN(c3cccc(Cl)c3)CC2)n1-c1ccccc1`, the activation is inactive: -19.9%.

In the case of `Nc1ccc(S(=O)(=O)NC2(C(F)(F)F)NC(=O)N(c3cccc(Cl)c3)C2=O)cc1` (centres undefined), the activation was inactive: 5.26%.

For the molecule `CCC(C(=O)N1CCN(c2ccc(OC)cc2)CC1)n1nc(C)n2c(cc3occc32)c1=O` (centres undefined), the activation is inactive: 18.4%.

In the case of `COc1ccc(Nc2c3c(nc4nncn24)CCC3)cc1Cl`, the activation is inactive: -3.54%.

For the molecule `CCOC(=O)c1noc2ncnc(Nc3cccc(C(F)(F)F)c3)c12`, the activation was inactive: -25.2%.

Consider `COC(=O)c1cccc(CN2C(=O)SC(Nc3ccc(Cl)cc3)C2=O)c1` (centres undefined), for which the activation is inactive: -70.9%.

For `COCCNC(=O)c1ccc2c(c1)N(Cc1c(F)cccc1Cl)C(=O)c1ccccc1S2`, the activation is inactive: -29.3%.

Regarding `CCOC(=O)c1c(C)oc2nc(C)nc(NCc3ccc(OC)cc3)c12`, the activation is inactive: -2.97%.

With `CCCc1cc(=O)[nH]c(Nc2ccc(C)c(O)c2)n1`, the activation is inactive: -8.24%.

For `CCCCOc1ccc(C(=O)Nc2nc3c(s2)CC(C)CC3)cc1` (centres undefined), the activation was inactive: 3.75%.

On to `CC(=O)Nc1ccc(NC(=O)CCc2c(C)nc3c(c(C)nn3-c3ccccc3)c2C)cc1`, for which the activation is inactive: -2.62%.

Turning to `O=C(Nc1ccccc1C(F)(F)F)N1CCC2(CC1)Oc1ccccc1C(=O)N2Cc1ccccc1F`, the activation is inactive: -24.4%.

Turning to `O=C(NCCc1ccccc1)C1COc2ccccc2C1` (centres undefined), the activation is inactive: -17.6%.

As to `CCOC(=O)N1CCc2c(sc3c2c(=O)n(-c2ccc(F)cc2)c(=O)n3CC(=O)c2ccccc2)C1`, the activation is inactive: -14.6%.

Consider `Cc1cccc(CN2C(=O)c3ccccc3Sc3ccc(C(=O)NCc4cccs4)cc32)c1`, for which the activation is inactive: -17.2%.

As for `CCc1ccc(NC(=O)c2cc(C)nn2-c2ccccc2)cc1`, the activation is inactive: -23.1%.

For `CCOC(=O)c1c(C)n(-c2ccccc2)c2ccc(OC(=O)c3cc(OC)cc(OC)c3)cc12`, the activation is inactive: -7.23%.

For the molecule `Cc1cc(=O)n(CC(=O)NC(C)c2ccccc2)c2c1c(C)nn2C` (centres undefined), the activation is inactive: 25.9%.

Take `CCOC(=O)c1c(NC(=O)c2cc3ccccc3c(=O)o2)sc2c1CCC(C(C)(C)C)C2` (centres undefined): the activation is inactive: -10.6%.

Consider `Cc1ccc(Nc2nc(C)c(NC(=O)c3ccc(C)cc3)c(Nc3ccc(C)cc3)n2)cc1`, for which the activation was inactive: -19.5%.

For `CCOc1ccc(C(=O)Nc2ccc3oc(-c4ccncc4)nc3c2)cc1`, the activation is inactive: -12.3%.

Consider `CCS(=O)(=O)N1CCc2cc(C(=O)Nc3cc(OC)c(Cl)cc3OC)ccc21`, for which the activation was inactive: -8.5%.

On to `CCc1cccc(C)c1NC(=O)C(CC)Sc1nncn2c1cc1occc12` (centres undefined), for which the activation was inactive: -23.7%.

As to `CCC(=O)Nc1cc(-c2nc3ccccc3s2)c(Cl)cc1Cl`, the activation is inactive: -7.73%.

`CCOc1ccc(NC(=O)CCNS(=O)(=O)c2cccc3nsnc23)cc1`: the activation is inactive: 3.01%.

For the molecule `Cn1c(=O)n(C)c2cc(NS(=O)(=O)c3ccc(C(C)(C)C)cc3)c(NCc3ccccc3)cc21`, the activation was inactive: -20.1%.

Regarding `Cc1cccc(C(=O)Nc2nnc(S(=O)(=O)N3CCCc4ccccc43)s2)c1`, the activation is inactive: 48.3%.

`Cc1ccc(NC(=O)Cn2cc(C(=O)C3CCCCC3)c3ccccc32)c(C)c1`: the activation is inactive: -0.635%.

These data come from PubChem BioAssay AID1346428 (National Center for Advancing Translational Sciences (NCATS), 2018).
